Results as given in PubChem BioAssay AID1508624 (National Center for Advancing Translational Sciences (NCATS), 2021).
Hit rate of the full screen: of about 48,000 compounds, about 120 (0.25%) were called active. Another 4% or so got no clear call; they are omitted. Calls follow the shape of the dose curve; as a rule, active = well fitted activation curve with a large enough effect; inconclusive = small, poorly fitted or top-dose-only effect, or another doubt; inactive = no such curve, though single readings can be large or run the other way. The list shows a part of the results.

Experiment: Primary qHTS for Identification of Small Molecule Activators of Huntingtin-Antisense Promoter Activity; also: nearly all actives have a fitted effect of over 55% in size
Settings: HEK293 HTT-AS promoter firefly luciferase reporter (activity 0% = vehicle and -100% = no light), 24 h; series mostly up to 57.5 µM; activity change, positive = activation: at the top concentration
Outline: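 Quantitative HTS used concentration series of up to 57.5 uM final on HEK293 luciferase reporter cells, 24 h at 37 degrees C. Readout was Dual-Glo firefly luminescence.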

Structure (SMILES) | activity change, positive = activation
COc1ccc(/C=C(\C#N)c2nc3ccccc3c(=O)[nH]2)cc1OC | inactive: -19.2%
CC(C)CN(CC(C)C)CC(O)Cn1cc(/C=C/C(=O)c2ccccc2)c2ccccc21 (stereo not drawn) | inactive: -27.3%
O=C(COc1ccc(F)cc1)OCc1cc(=O)n2nc(-c3cccs3)sc2n1 | inactive: 7.02%
COc1cccc(CNS(=O)(=O)c2c(C(=O)N3CCC(C)CC3)c(C)n(C)c2C)c1 | inactive: -7.12%
CCc1ccc(NC(=O)C2=CC(c3cccs3)=NS(=O)(=O)N2C)cc1 | inactive: -14.9%
COc1cc(NS(=O)(=O)c2c(C)nc3sc(C)c(C)n3c2=O)cc(OC)c1 | inactive: -14.8%
COc1ccc(C)c2sc(NC(=O)c3ccc(S(=O)(=O)N4CCCC4)cc3)nc12 | inactive: -8.18%
CCOc1ccccc1CNC(=O)Cn1nc(N2CCN(c3ccccc3)CC2)ccc1=O | inactive: -18.2%
NC(N)=N/N=C/c1c(Cl)cccc1Cl | inactive: -14.2%
COc1ccc(C(=O)NCc2ccc3c(c2)CCN3C(=O)c2ccc(F)cc2)cc1 | inactive: -24%
COc1cccc(Cc2nc3ccccc3nc2SCC(=O)Nc2cc(OC)ccc2OC)c1 | inactive: -23.7%
CCOc1ccccc1CNCCSc1nnnn1C | inactive: -11.1%
CCOCCn1ccc2c(OCC(=O)Nc3cccc(F)c3)cccc2c1=O | inactive: -12.9%
CCOc1cc(-c2ccc(OC(=O)c3ccccc3)c(OC)c2)cc(=O)c2c(C)oc(C)c12 | inactive: -15.1%
Cc1ccc(C2c3c(oc4ccccc4c3=O)C(=O)N2c2nnc(C)s2)cc1 (stereo not drawn) | inactive: -3.85%
CCN(CCCNC(=O)CN1N=C(c2ccccc2)CCC1=O)c1ccccc1 | inactive: -22%
O=c1c2sc3ccccc3c2n(Cc2ccccc2)c(=O)n1CCc1ccccc1 | inactive: 0.435%
COc1ccc(C)cc1Nc1ncnc2c1c(-c1ccccc1)cn2-c1ccc(C)cc1 | inactive: -9.94%
O=c1[nH]c(=O)n([C@H]2C[C@H](O)[C@@H](CO)O2)cc1F | inactive: -18%
COc1ccc(S(=O)(=O)N2CCC(C(=O)Nc3cc(C(F)(F)F)ccc3Cl)CC2)cc1 | inactive: -19.8%
COc1ccc(OC)c2sc(N3CCN(C(=O)C4COc5ccccc5O4)CC3)nc12 (stereo not drawn) | inactive: -2.05%
O=C(Nc1cccc(F)c1)c1oc2ccccc2c1NC(=O)C12CC3CC(CC(C3)C1)C2 | inactive: -8.7%
CCCCCn1cc2c(c1-c1ccccc1Br)c(=O)n(C)c(=O)n2C | inactive: -33.6%
CC(C)c1ccc(NC(=O)CCS(=O)(=O)c2ccc3c(c2)CC(=O)N3C)cc1 | inactive: 4.17%

Structure (SMILES) | activity change, positive = activation
O=S(=O)(c1ccccc1)c1nnn2c1nc(NCc1ccccc1)c1cc(Cl)ccc12 | inactive: 0%
Cc1nc2nc(C)c(CCC(=O)NCc3ccccc3)c(C)n2n1 | inactive: -10%
Cc1ccc2occ(CC(=O)Nc3ccc(S(=O)(=O)N4CCC(C)CC4)cc3)c2c1 | inactive: -23.9%
COc1ccccc1CNC(=O)CSc1nnc(C)c2c(C)n(-c3ccccc3)nc12 | inactive: -45.7%
O=C(Nc1ccc(F)c(Cl)c1)N1CCC(CN2CCOCC2)CC1 | inactive: -5.74%
Cc1nc2sccn2c(=O)c1S(=O)(=O)Nc1cc(C(F)(F)F)ccc1Cl | inactive: -24%
Cc1ccc(CCNC(=O)c2ccc3c(c2)nc2n3CCOC2)cc1 | inactive: 2.48%
CCOCCCn1c(SCC(=O)Nc2ccccc2Cl)nc2c(oc3ccccc32)c1=O | inactive: 5.52%
Cc1ccccc1OCCCCn1nnc2sc3c(c2c1=O)CCC(C)C3 (stereo not drawn) | inactive: -1.14%
COCCNC(=O)c1ccc(-c2nc(CS(=O)(=O)c3ccccc3)c(C)o2)cc1 | inactive: 22%
CN1C(=O)C2(SCC(=O)N2c2ccc(Cl)cc2)c2ccccc21 (stereo not drawn) | inactive: -1.98%
CCOc1ccc(NC(=O)CSc2nc3ccsc3c(=O)n2CCCCCC(=O)O)cc1 | inactive: -5.49%
CC(=O)N1CCCc2cc(S(=O)(=O)N3CCCC(C(=O)NCc4ccc(C)cc4)C3)ccc21 (stereo not drawn) | inactive: -40.4%
CCOc1ccc(NCc2nc3ccccc3n2CCOc2ccc(C)cc2)cc1 | inactive: -90.8%
CNNCc1ccc(C(=O)NC(C)C)cc1 | inactive
CCc1ccc(-n2nc3ccc(NC(=O)COc4ccc(OC)cc4)cc3n2)cc1 | inactive: -7.68%
COc1cccc(Cn2c(CNS(=O)(=O)c3ccc(Cl)s3)nc3cccnc32)c1 | inactive: -27.9%
CCc1nn2c(=O)c(S(=O)(=O)Nc3ccc(C(C)C)cc3)c(C)nc2s1 | inactive: -26.5%
O=C(CSc1nc2c(c(=O)[nH]1)CN(Cc1ccc3c(c1)OCO3)CC2)Nc1ccccc1Cl | inactive: 0%
Cc1ccc(S(=O)(=O)C(CNC(=O)COc2ccccc2)c2ccco2)cc1 (stereo not drawn) | inactive: -14.1%
CCCOc1ccc(-c2cc(C(F)(F)F)c(C#N)c(SCCC(=O)O)n2)cc1 | inactive: 0%
CCCN(CCC)C(=O)Cn1c(=O)n(CCCCCC(=O)NCc2ccccc2Cl)c(=O)c2sccc21 | inactive: -8.25%
CC(C)CCNC(=O)C(Cc1ccccc1)NS(=O)(=O)c1ccc2c(c1)c(=O)n(C)c(=O)n2C (stereo not drawn) | inactive: -10.7%
CS(=O)(=O)N1CCc2cc(C(=O)Nc3ccc(C(F)(F)F)cc3)ccc21 | inactive: -42.9%
